Among the data in article PMC12820563 are binding signal (RPM ratio (pull-down/input)) values, retold here.

The other results are listed elsewhere or left out. The list includes weakly bound sequences.

The target of the test is T1, MBP-FoxP3dN (UniProt Q99JB6).
T1 sequence: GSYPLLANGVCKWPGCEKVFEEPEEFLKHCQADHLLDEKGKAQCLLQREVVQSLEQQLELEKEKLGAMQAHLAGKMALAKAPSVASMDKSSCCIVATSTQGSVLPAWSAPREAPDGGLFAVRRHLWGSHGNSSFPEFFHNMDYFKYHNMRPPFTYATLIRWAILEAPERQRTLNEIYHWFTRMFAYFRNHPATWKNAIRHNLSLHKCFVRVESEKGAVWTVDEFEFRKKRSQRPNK
Nature of the test: PD-seq (MBP pull-down with sequencing). The settings on record: 20 mM Tris-HCl pH 7.5, 100 mM NaCl, 1.5 mM MgCl2, 0.4 uM protein, 0.1 uM dsDNA library, 30 min, room temperature, amylose pull-down; high values mean tight binding; double strand, one strand shown.
Take “GATGATTGTTCTCCCAGCTGATGAATTACTACGATCGAGTAAACAAATTTTCCTAATCTTTCTGTTCAAGCGCCATCTAC”: the binding signal (RPM ratio (pull-down/input)) stood at 0.338.
On to “GATGATTGTTCTCCCAGCTGATGAATTTACAGCGTCGAGTAAACAAATTTTCCTAATCTTTCTGTTCAAGCGCCATCTAC”, for which the binding signal (RPM ratio (pull-down/input)) was determined as 0.607.
As to “GATGATTGTTCTCCCAGCTGATGAATTTGCAAGATCGAGTAAACAAATTTTCCTAATCTTTCTGTTCAAGCGCCATCTAC”, the binding signal (RPM ratio (pull-down/input)) worked out at 0.415.
In the case of “GATGATTGTTCTCCCAGCTGATGAATTGTTTTTGTCGAGTAAACAAATTTTCCTAATCTTTCTGTTCAAGCGCCATCTAC”, the binding signal (RPM ratio (pull-down/input)) was 4.16.
With “GATGATTGTTCTCCCAGCTGATGAATTGGTATAATCGAGTAAACAAATTTTCCTAATCTTTCTGTTCAAGCGCCATCTAC”, the binding signal (RPM ratio (pull-down/input)) came to 0.914.
For the sequence “GATGATTGTTCTCCCAGCTGATGAATTCTGACCATCGAGTAAACAAATTTTCCTAATCTTTCTGTTCAAGCGCCATCTAC”, the binding signal (RPM ratio (pull-down/input)) was determined as 0.422.
To “GATGATTGTTCTCCCAGCTGATGAATTTGACATATCGAGTAAACAAATTTTCCTAATCTTTCTGTTCAAGCGCCATCTAC” belongs 1.03; to “GATGATTGTTCTCCCAGCTGATGAATTCCGGTGGTCGAGTAAACAAATTTTCCTAATCTTTCTGTTCAAGCGCCATCTAC”, 0.395.
In the case of “GATGATTGTTCTCCCAGCTGATGAATTACTCGGATCGAGTAAACAAATTTTCCTAATCTTTCTGTTCAAGCGCCATCTAC”, the binding signal (RPM ratio (pull-down/input)) turned out to be 0.243.
To “GATGATTGTTCTCCCAGCTGATGAATTTCCTTACTCGAGTAAACAAATTTTCCTAATCTTTCTGTTCAAGCGCCATCTAC” belongs 0.311.
To “GATGATTGTTCTCCCAGCTGATGAATTCCTCGACTCGAGTAAACAAATTTTCCTAATCTTTCTGTTCAAGCGCCATCTAC” belongs 0.213.
To “GATGATTGTTCTCCCAGCTGATGAATTTCTAAACTCGAGTAAACAAATTTTCCTAATCTTTCTGTTCAAGCGCCATCTAC” belongs 0.302.
For “GATGATTGTTCTCCCAGCTGATGAATTCCATGAGTCGAGTAAACAAATTTTCCTAATCTTTCTGTTCAAGCGCCATCTAC”, the binding signal (RPM ratio (pull-down/input)) was determined as 0.445.
Turning to “GATGATTGTTCTCCCAGCTGATGAATTAACGACCTCGAGTAAACAAATTTTCCTAATCTTTCTGTTCAAGCGCCATCTAC”, the binding signal (RPM ratio (pull-down/input)) is 0.235.
For “GATGATTGTTCTCCCAGCTGATGAATTCATATATTCGAGTAAACAAATTTTCCTAATCTTTCTGTTCAAGCGCCATCTAC”, the binding signal (RPM ratio (pull-down/input)) was 0.949.
For the sequence “GATGATTGTTCTCCCAGCTGATGAATTTCTTTACTCGAGTAAACAAATTTTCCTAATCTTTCTGTTCAAGCGCCATCTAC”, the binding signal (RPM ratio (pull-down/input)) was found to be 2.02.
On to “GATGATTGTTCTCCCAGCTGATGAATTTTATCAATCGAGTAAACAAATTTTCCTAATCTTTCTGTTCAAGCGCCATCTAC”, for which the binding signal (RPM ratio (pull-down/input)) worked out at 0.413.
In the case of “GATGATTGTTCTCCCAGCTGATGAATTATGCAGCTCGAGTAAACAAATTTTCCTAATCTTTCTGTTCAAGCGCCATCTAC”, the binding signal (RPM ratio (pull-down/input)) came out at 3.11.
With “GATGATTGTTCTCCCAGCTGATGAATTAGCGTTCTCGAGTAAACAAATTTTCCTAATCTTTCTGTTCAAGCGCCATCTAC”, the binding signal (RPM ratio (pull-down/input)) came out at 1.3.
As for “GATGATTGTTCTCCCAGCTGATGAATTTGGCGCGTCGAGTAAACAAATTTTCCTAATCTTTCTGTTCAAGCGCCATCTAC”, the binding signal (RPM ratio (pull-down/input)) amounted to 1.67.
For the sequence “GATGATTGTTCTCCCAGCTGATGAATTGCATCACTCGAGTAAACAAATTTTCCTAATCTTTCTGTTCAAGCGCCATCTAC”, the binding signal (RPM ratio (pull-down/input)) was found to be 3.27.
To “GATGATTGTTCTCCCAGCTGATGAATTGATGCGCTCGAGTAAACAAATTTTCCTAATCTTTCTGTTCAAGCGCCATCTAC” belongs 3.59; to “GATGATTGTTCTCCCAGCTGATGAATTTCTCGTATCGAGTAAACAAATTTTCCTAATCTTTCTGTTCAAGCGCCATCTAC”, 0.424; to “GATGATTGTTCTCCCAGCTGATGAATTAGCACCCTCGAGTAAACAAATTTTCCTAATCTTTCTGTTCAAGCGCCATCTAC”, 0.421.
As for “GATGATTGTTCTCCCAGCTGATGAATTTTTAGGTTCGAGTAAACAAATTTTCCTAATCTTTCTGTTCAAGCGCCATCTAC”, the binding signal (RPM ratio (pull-down/input)) is 0.24.
As to “GATGATTGTTCTCCCAGCTGATGAATTTTCGCGGTCGAGTAAACAAATTTTCCTAATCTTTCTGTTCAAGCGCCATCTAC”, the binding signal (RPM ratio (pull-down/input)) turned out to be 0.255.
As for “GATGATTGTTCTCCCAGCTGATGAATTTAGTCTGTCGAGTAAACAAATTTTCCTAATCTTTCTGTTCAAGCGCCATCTAC”, the binding signal (RPM ratio (pull-down/input)) was 0.54.
For “GATGATTGTTCTCCCAGCTGATGAATTCGCGACTTCGAGTAAACAAATTTTCCTAATCTTTCTGTTCAAGCGCCATCTAC”, the binding signal (RPM ratio (pull-down/input)) was 0.792.
For “GATGATTGTTCTCCCAGCTGATGAATTTAATGTTTCGAGTAAACAAATTTTCCTAATCTTTCTGTTCAAGCGCCATCTAC”, the binding signal (RPM ratio (pull-down/input)) was 3.24.
For “GATGATTGTTCTCCCAGCTGATGAATTCAGCCACTCGAGTAAACAAATTTTCCTAATCTTTCTGTTCAAGCGCCATCTAC”, the binding signal (RPM ratio (pull-down/input)) was found to be 5.07.
Turning to “GATGATTGTTCTCCCAGCTGATGAATTCTGGATGTCGAGTAAACAAATTTTCCTAATCTTTCTGTTCAAGCGCCATCTAC”, the binding signal (RPM ratio (pull-down/input)) was 0.414.
